PubChem BioAssay AID2675 (National Center for Advancing Translational Sciences (NCATS), 2010)
About 100 (0.036%) of roughly 280,000 compounds were called active. Inconclusive results, whose numbers are uncertain, are shown with a selection of clear calls. Calls come from the whole dose curve; as a rule, active = well fitted inhibition curve with a large enough effect in the signal ratio, with a control signal flat (not every such curve was filed as active); inconclusive = small, poorly fitted or top-dose-only effect, or effect the other way, or a change in a side signal; inactive = no such curve, though single readings can be large or run the other way; the % refers to the signal ratio. A potency beside an inconclusive call is a rough fit, not a confirmed value. “Side channel” marks fits to a control or component signal instead of the main read-out.

The compounds below were run against Muscleblind-like protein 1 (Homo sapiens) (UniProt Q9NR56) (assay: qHTS Assay for Inhibitors of MBNL1-poly(CUG) RNA binding). Conditions: TR-FRET MBNL1-His/biotin-(CUG)12 binding, 665/545 ratio; activity change, negative = inhibition: at 57.5 µM (top of the series).
Sequence of UniProt Q9NR56 (Q9NR56 whole entry, looked up): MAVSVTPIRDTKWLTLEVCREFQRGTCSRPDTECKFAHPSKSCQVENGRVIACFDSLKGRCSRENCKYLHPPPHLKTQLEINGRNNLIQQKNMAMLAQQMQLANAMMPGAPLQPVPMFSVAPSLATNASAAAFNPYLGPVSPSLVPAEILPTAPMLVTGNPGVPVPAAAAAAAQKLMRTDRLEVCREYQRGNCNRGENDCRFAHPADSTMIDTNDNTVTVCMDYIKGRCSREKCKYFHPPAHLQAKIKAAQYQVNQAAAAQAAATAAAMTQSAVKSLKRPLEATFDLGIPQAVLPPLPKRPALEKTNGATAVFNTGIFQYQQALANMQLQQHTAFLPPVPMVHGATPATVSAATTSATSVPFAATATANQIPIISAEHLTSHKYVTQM
Method in brief: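 Inhibition of protein-RNA binding appears as loss of TR-FRET between terbium anti-His antibody on MBNL1-His and streptavidin-XL665 on biotin-(CUG)12. Activity is normalized to buffer-only and uninhibited-complex controls.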
% is set by controls: 0 for no effect and ±100 for the full control effect; potency is the fitted concentration of half-maximal effect; tags give direction and shape of the fitted curve or compound fluorescence and quenching.

SMILES	Potency	activity change, negative = inhibition
Cc1cc(SCc2cccc([N+](=O)[O-])c2)nc(=O)[nH]1	inconclusive: 8.91 µM [quencher, side channel, partial curve]	
Cc1ccc(N2CC(C(=O)Nc3ncc([N+](=O)[O-])s3)CC2=O)cc1 (configuration not stated)	inconclusive: 8.91 µM [quencher, side channel, partial curve]	
CC(C)(C)c1cc(CN(CCO)CCO)cc(C(C)(C)C)c1O		inactive: -0.683%
Nc1ncc2c(n1)CCN(c1ccc([N+](=O)[O-])cc1)C2	inconclusive: 12.6 µM [quencher, partial curve]	
C/C(=N/NC(=O)c1ccc2c(c1)OCO2)c1cccc([N+](=O)[O-])c1	inconclusive: 2.51 µM [quencher, side channel, full curve, poor fit]	
O=c1/c(=C/c2ccc(CNS(=O)(=O)c3ccccc3)o2)sc2n1CCN=2	inconclusive: 10 µM [quencher, side channel, partial curve]	
Cc1cc(NC(=S)NC(=O)c2ccco2)c2ccccc2n1		inactive: 5.18%
COc1cc([N+](=O)[O-])cc(/C=N/NC(=O)C(C)Nc2ccccc2C)c1O (configuration not stated)	inconclusive: 39.8 µM [quencher, side channel, partial curve, poor fit]	
CC(C)OCCCNC(=O)CN1C(=O)c2cccc3cccc1c23	inconclusive: 3.55 µM [quencher, side channel, full curve]	
CC/C(=N/Nc1ccccc1)c1cnnc(SC)n1	inconclusive: 15.8 µM [quencher, side channel, partial curve]	
CCOC(=O)CNc1ccc2c(c1)OCO2	inconclusive: 39.8 µM [quencher, side channel, single point]	
COc1ccc(-c2nnc(SCC(=O)NCc3ccco3)o2)cc1		inactive: -3.41%
COc1ccc(CCNC(=O)CN2c3cccc4cccc(c34)S2(=O)=O)cc1OC	inconclusive: 31.6 µM [quencher, side channel, single point]	
Cc1c(Cl)ccc2c(C(=O)Nc3cc(C(C)(C)C)on3)cc(-c3ccccn3)nc12	inconclusive: 31.6 µM [fluorescent, side channel, single point]	
CC1=C(C(=O)OC2CCCCC2)C(c2ccco2)C2=C(CC(C)(C)CC2=O)N1 (configuration not stated)		inactive: -10.2%
CCOCCCNC(=O)C(NC(=O)c1ccc(NC(C)=O)cc1)c1ccc(C)cc1 (configuration not stated)	inconclusive: 5.62 µM [fluorescent, side channel, full curve, poor fit]	
CCCCC(=O)N1CCN(c2ccc(OC)cc2[N+](=O)[O-])CC1	inconclusive: 15.8 µM [quencher, side channel, partial curve]	
